Test results reported in the supplement of paper PMC11417369.
The list shows a part of the results.

system: PfAP2-HC AP2 domain (GST-tagged); test: gcPBM binding intensity (ln(normalized median fluorescence intensity)); higher = stronger DNA binding
Outline: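 Binding intensity is the highest Masliner-normalised natural-log median intensity over replicate spots in either probe orientation. To obtain it, GST-tagged P. falciparum DNA-binding domains made in E. coli were incubated for 1 h on an Agilent 4 × 180k array of primer-extended double-stranded 36-bp intergenic genomic probes plus negative controls. Detection used Alexa488 anti-GST antibody with scanning at 488 nm.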

| Sequence | gcPBM binding intensity (ln) |
| --- | --- |
| ATTAAGACACATTGCACACGTGCACCCATAGAAAAA [CACACA_site408] | 9.76 |
| TATATATATATAATAGTGCATAAATAAATATATAAA | 9.79 |
| TTTTAATTAAGACACACACACACATATAAATATGTA [CACACA_site7144] | 11 |
| TATCATTTCATATCAAGTACAAACATTTTACATATA [XGTACX_site5307] | 9.52 |
| ATAATAATATATATTGTACACACAAAATGGGAAAAA [CACACA_site8568] | 10.2 |
| ATATGTATTTATATATGTTTGATTTTTTTTTTTTTT [TGCATGCA_negctrl_site506] | 9.53 |
| AGGAAAAAAGAAAAAACACACATAAATATATATATA [CACACA_site3085] | 9.74 |
| CATACAGACATACATACACACATACCTATAAATATA [CACACA_site6995] | 10.3 |
| AAATGAAATAAAATCATATATTTATAATTATTATAA [TGCATGCA_negctrl_site612] | 9.56 |
| AAAGAGAACAGAAGTACACACATGTTCTTTTAGTAA [CACACA_site5557] | 9.85 |
| ATATTCTGCTGTTTAGTGCAATTATGAAATTATGAT | 9.55 |
| TAAAAAATAAAAATTGCACACTAAAAAATTACCCAC [CACACA_site5823] | 10.2 |
| TTGATTTTTATTTTTAAAATAAATAAATTTCAAATG [TGCATGCA_negctrl_site199] | 9.16 |
| TTTTTTTTTCTTTGGTGTACAATGTAATAGAAAATA [XGTACX_site227] | 9.34 |
| AAAAAAAACAAACACACACACAAATATTTATATATT [CACACA_site436] | 10.5 |
| TAAAAAGAAATGTAAAGTACAAATTTGAATAACATG [XGTACX_site7981] | 9.87 |
| AAAAAATTATATAAATGTACATTTTGGCTAGACATG [XGTACX_site5977] | 9.71 |
| TTTTTTTTTGAATATTGTACATATATATTACTTTTA [XGTACX_site5520] | 9.71 |
| CATATATATAATTATTCACACAATAGTTAAAAGTAT [CACACA_site5302] | 9.71 |
| TAGCTCGTTCGGAGCACACACATATATATATATATA [CACACA_site1948] | 9.71 |
| TACATAAATTAAAACACACACACACTAATAAAAAAA [CACACA_site8712] | 11.3 |
| ATATGTATGTATGTATGTACTTATTTATTTATTAAT [XGTACX_site8018] | 9.75 |

| Sequence | gcPBM binding intensity (ln) |
| --- | --- |
| GTTTTATTTTGTTTCTATTTGACACATGTGATTATT [CACACA_negctrl_site1246] | 10.1 |
| ATTCAATATATATACACACACACTTTTAATAATTAA [CACACA_site3770] | 10.8 |
| TGTTAAAATAAAATCTATTACATTTTTATGGTTATA [XGTACX_negctrl_site525] | 9.31 |
| TCTTGTAAATATATGTGTATATTATATTTTATTATA [TGCATGCA_negctrl_site117] | 9.67 |
| CTTAATATTCTTTAAAGTACACAAAATAAGAATATA [XGTACX_site5489] | 9.28 |
| TGCAAGGAAAAACACACACACACATAAATGTATATA [CACACA_site751] | 10.4 |
| ATTTCATATACAAATTGTACATACAATTTTATGTTT [XGTACX_site3240] | 9.81 |
| TTAAAAATAATATTATGTACTAAGAATAAATATATA [XGTACX_site3100] | 9.56 |
| CTAGTAAAAAATGCAAGTACATACATTATAAGTATA [XGTACX_site3908] | 9.7 |
| ATATTGGAGCACAACACACACAAGTATAAATATGGA [CACACA_site6834] | 10.2 |
| AAAAAACACGCACATACACACAAAAATGTTATAAAT [CACACA_site6188] | 10.2 |
| TTATATTTTTTAATTACACACAATTTTTATAAATAT [CACACA_site4148] | 9.65 |
| ATCTCATAAAACCGCACACACATAAAATTTGCATTA [CACACA_site3891] | 10.1 |
| TATAAATATTATAATTGTACATATTATAAAAATTTT [XGTACX_site2719] | 9.52 |
| TTTAAAATTTAATTTTGTACATATACCAATTTTATT [XGTACX_site448] | 9.65 |
| AATTAGCATAAATGGGTGCTACACAAAAATGCATGT [GTGCAC_site9640] | 9.74 |
| ATATAAATATGAAAAAGTACAAGCCATCAAGAAATC [XGTACX_site8140] | 9.97 |
| AATTTTTTATTCTTTGCATGTCATCATATATAATAT [TGCATGCA_site549] | 9.81 |
| ATATAATGTTAGGGTAGAGGAAGTAACTAATATAAA [CACACA_negctrl_site1153] | 9.73 |
| ATATAATATATGTTATGTACATAGTTTTTATTGTTC [XGTACX_site7438] | 9.77 |
| AATATATAATCAGATGAATTTTTTTTTTTTTTTTCA [CACACA_negctrl_site534] | 9.21 |
| AAATATATAAAAGTATGTACATATGAAAAATATATA [XGTACX_site6165] | 9.98 |

| Sequence | gcPBM binding intensity (ln) |
| --- | --- |
| TTATATAACATAACGATGTTTCAAAACATATTGTAT [CACACA_negctrl_site997] | 9.59 |
| TTATAAAGAATTAGGAGTACAAATGCATATATAATA [XGTACX_site6580] | 9.73 |
| AGCAACTAAAAAGGATACCCCATTAAAAAAAAATTA [XGTACX_negctrl_site489] | 9.4 |
| TGTGTATAAAAAAAGTGTACACAAAGTAAGACTTTA [XGTACX_site3759] | 9.82 |
| TACCAAAAAACGGCACGCATATGTATAAGAATATGT [XGTACX_negctrl_site470] | 9.68 |
| TTAATTAAGAAACACACACACATATATATATATATT [CACACA_site2290] | 10.5 |
| TGAATAAAGAAACACACACACATATATATATATGTA [CACACA_site17] | 10.3 |
| TATTAATAATTTTCATGTACATATGTATTTGTAATA [XGTACX_site858] | 9.53 |
| ATATAATAAATGTCATGTACATACAACATTTTAACT [XGTACX_site7517] | 9.59 |
| TTTTTAATTTACTGTCATAGGTACCTTAACTTATCA [CACACA_negctrl_site1664] | 9.67 |
| TACTTATGTTCGCACACATGCAAATTAAAAAAAAAA [TGCATGCA_site1023] | 9.84 |
| TACATATACATATTGTGTACATAATAATTATTTATA [XGTACX_site7884] | 9.76 |
| ATTTTTTTACTGGATCCATATTTGCTTTTTTATTTA [CACACA_negctrl_site1108] | 9.84 |
| GTGGATATATGTATATGTACATATGTATGTATATAT [XGTACX_site2412] | 9.88 |
| TCTCTTTTTCGTTCATGTACAAATAAATAAAAATAT [XGTACX_site6558] | 9.4 |
| TTATATATATGACTTTGTACATATACATATTTTTTA [XGTACX_site4669] | 9.68 |
| GTATATTTTATTTTATGTACATATTCATTTTTTATT [XGTACX_site561] | 10.2 |
| TATTATATATATGCACGTACAAAAATAATAAAGGTA [XGTACX_site3506] | 9.74 |
| CATGAATCCTAATAATGTACATAAGAATTCATAATG [XGTACX_site1607] | 9.45 |
| TACATATATATATATGAACACACAAAAAGAATATTT [CACACA_site8421] | 9.84 |
| ATAAGCATACATATTACACACATATAATATATATAT [CACACA_site2487] | 9.85 |
| TCTTACTAATTTATGGGGACTTATCACCTATTCAGT [CACACA_negctrl_site652] | 9.55 |

| Sequence | gcPBM binding intensity (ln) |
| --- | --- |
| AGTGGATAAATTTATTCACACATTTTTTTTTTTTTT [CACACA_site5914] | 9.49 |
| TTTTATGAGAAACACACACACAAAAAAAAAAAAAAA [CACACA_site4129] | 9.8 |
| TATATTATTTATAGTAGTACATAAAATATAAATATT [XGTACX_site4417] | 9.48 |
| AAAAAAAAAAAAAAAACACACATACACATATATTTT [CACACA_site7768] | 9.99 |
| TATTGTATTTCATATTGTACTAAAAAAAAAAAAAAG [XGTACX_site6694] | 9.42 |
| ATAATACATACATACATACACACATATATATATATT [CACACA_site3576] | 10 |
| TAAAAAAAAAAAAAAACACACATATAAATATTTATA [CACACA_site6702] | 9.61 |
| TCAATAATAAAAAACACACACAAAAAAAAATAATTA [CACACA_site2798] | 10.2 |
| AACAAAGTCATACATACATACATATATATATATATA [GTGCAC_negctrl_site632] | 9.57 |
| AAATTAAAATAAAATAGTACATATATTTATATTTTT [XGTACX_site1687] | 9.55 |
| TATTATTTTTCATATGCATGCAAAAATAAAAAAATA [TGCATGCA_site350] | 9.31 |
| TATAAAAAAAAAAAAAAAAAAAAAAATATATATATA [CACACA_negctrl_site817] | 9.34 |
| ATGAAAAAAAAAAAAAAAAAAAAAAAAAAAAAAATA [CACACA_negctrl_site1083] | 9.29 |
| ATTTTTTTGTATATATATGACTGGGGATATAATCAA [GTGCAC_negctrl_site274] | 9.61 |
| AAAAAAAAAAAAAATTGTACTTAAATATATATATAT [XGTACX_site7604] | 9.29 |
| TTAGCTTATCATTACTGTACTTTATTCATATATATG [XGTACX_site8008] | 9.75 |
| TAAACATTCTTATATAGTACCCATATTAAAATATAC [XGTACX_site8014] | 9.42 |
| ATTTTTTTTTCTTGTACACACTATTTTATAATTTTA [CACACA_site6102] | 10.1 |
| ACATACATATATTTATGTACATATATATTTATGATT [XGTACX_site6485] | 9.67 |
| TTTTGGTGTATAGTATTAATATAAAATAATTATATT [CACACA_negctrl_site47] | 9.58 |
| AATTTATATTTATGTGCATGTAATAACTGTATATAA [TGCATGCA_site349] | 9.52 |
| TCTAATAATAAATACACACACATATATATTTATATA [CACACA_site5169] | 10.1 |
